# Measurements from the supplement of paper PMC4723716.
# ± gives the uncertainty stated by the source. Whole data set: some 9,900 compounds, median “viability index relative to DMSO control” near 1, cut for the lowest 2% near 0.85. The list shows a part of the results.
# Tested on: Plasmodium falciparum NF54 stage V gametocytes
# Test: viability index relative to DMSO control (fraction); higher = less gametocyte killing
# Conditions: 2.5 µM, library set: Broad Institute DOS, incubation time: 72 h
# How it was run: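 Viability index is the count of red-stained particles in a well divided by the plate mean of solvent-only wells. Particles of 20–70 µm2 were counted in one imaged field per well after one to two hours with 3 µl of 2.5 µM MitoTracker Red CMXRos and 0.13% saponin. Before staining, P. falciparum NF54 stage V gametocytes in serum-free medium (0.75% gametocytemia, 1.25% hematocrit, 10 µl, 1,536-well plates) were kept with compound at 2.5 µM for 72 hr at 37°C under low oxygen.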
row,SMILES,viability index
1,CN(C)C(=O)c1ccc(-c2ccc([C@@H]3[C@@H](C#N)N(C(=O)C4CC4)[C@H]3CO)cc2)cc1,1.06 ± 0.068
2,Cc1ccccc1-c1ccc([C@@H]2[C@@H](CO)N3C(=O)CN(C(=O)c4ccncc4)C[C@@H]23)cc1,1.05 ± 0.076
3,CNC[C@@H]1OCCCC[C@H](C)Oc2ccc(NS(=O)(=O)c3ccc(F)cc3)cc2C(=O)N([C@@H](C)CO)C[C@H]1C,1.07 ± 0.018
4,CO[C@@H]1CN(C)C(=O)c2cc(NS(=O)(=O)c3ccc(Cl)cc3)ccc2OC[C@H](C)N(C(=O)NC(C)C)C[C@@H]1C,1.06 ± 0.06
5,O=C1N[C@H](Cc2ccccc2)COCc2cnnn2CC[C@H]1Cc1ccc(-c2ccccc2)cc1,1.07 ± 0.028
6,Cc1ccc(S(=O)(=O)N(C)C[C@H]2OCCCC[C@H](C)Oc3ccc(NC(=O)c4ccncc4)cc3C(=O)N([C@H](C)CO)C[C@@H]2C)cc1,1.08 ± 0.039
7,Cc1noc(C)c1NC(=O)Nc1ccc2c(c1)CC(=O)N([C@@H](C)CO)C[C@H](C)[C@H](CN(C)Cc1ccc(C(F)(F)F)cc1)O2,1.02 ± 0.13
8,C/C=C/c1ccc([C@H]2[C@@H](CNC(=O)CC3CC3)N(C(=O)CC)[C@H]2CO)cc1,1.05 ± 0.054
9,O=C(CN1CCOCC1)N1CC[C@@H]2[C@@H](CO)Nc3ccc(Br)cc3[C@@H]21,1.12 ± 0.063
10,C/C=C/c1ccc([C@H]2[C@@H](CO)N(C(=O)NC3CCCCC3)[C@H]2C#N)cc1,1.11 ± 0.16
11,Cc1noc(C)c1S(=O)(=O)N(C)C[C@@H]1OCCCC[C@@H](C)Oc2ccc(NS(=O)(=O)c3cn(C)cn3)cc2C(=O)N([C@@H](C)CO)C[C@H]1C,1.11 ± 0.094
12,COc1ccc(C[C@H]2CCn3cc(nn3)COCCCNC2=O)cc1,1.01 ± 0.14
13,Cc1ccc(S(=O)(=O)Nc2ccc3c(c2)C(=O)N([C@@H](C)CO)C[C@@H](C)[C@@H](CN(C)Cc2ccc(C(F)(F)F)cc2)O3)cc1,1.04 ± 0.07
14,CCCNC(=O)N1C[C@]2(CN(Cc3cccnc3)C2)c2c([C@@H]1CO)n(C)c1cc(OC)ccc21,1.02 ± 0.09
15,Cc1noc(C)c1NC(=O)N(C)C[C@H]1Oc2ccc(NC(=O)CCCN(C)C)cc2C(=O)N([C@@H](C)CO)C[C@@H]1C,1 ± 0.035
16,COc1cccc(-c2ccc([C@@H]3[C@H]4CNC[C@@H]3N4C(=O)Nc3ccc4c(c3)OCO4)cc2)c1,1.08 ± 0.064
17,O=C(NCC[C@@H]1CC[C@H](NS(=O)(=O)c2ccc(F)cc2)[C@@H](CO)O1)c1ccc2c(c1)OCO2,1.005 ± 0.01
18,N#Cc1ccc(-c2ccc([C@@H]3[C@H](CO)N4C(=O)CNC[C@@H]34)cc2)cc1,1.05 ± 0.028

row,SMILES,viability index
1,COc1cccc(C#Cc2ccc([C@@H]3[C@@H](CO)N4C(=O)CN(C(=O)Cc5cccnc5)C[C@@H]34)cc2)c1,0.969 ± 0.015
2,COCC(=O)N1C[C@]2(CN(Cc3ccccc3)C2)c2c([C@H]1CO)n(C)c1cc(OC)ccc21,0.972 ± 0.1
3,O=C(Nc1cccc(Cl)c1)N1C[C@@H]2[C@H](c3ccccc31)[C@@H](CO)N2Cc1cccnc1,0.992 ± 0.035
4,CCN(C[C@H]1[C@@H](c2ccccc2)[C@H](CO)N1CC1CC1)C(=O)c1ccccn1,1.079 ± 0.0086
5,Cc1ccc(S(=O)(=O)Nc2ccc3c(c2)CC(=O)N([C@H](C)CO)C[C@H](C)[C@H](CN(C)S(=O)(=O)c2ccccc2)O3)cc1,0.99 ± 0.045
6,COC(=O)C[C@@H]1C[C@@H]2c3cc(N)ccc3O[C@@H]2[C@@H](CO)O1,1.04 ± 0.064
7,CCC(=O)NC[C@@H]1[C@@H](c2ccc(-c3ccc(F)cc3)cc2)[C@@H](CO)N1C(=O)CC,1.0914 ± 0.00018
8,CCS(=O)(=O)N1CC2(C1)[C@@H](c1ccccc1)[C@H](CO)N2Cc1ccccn1,1.021 ± 0.0087
9,O=C(C[C@H]1CC[C@H]2[C@@H](COC[C@@H](O)CN2S(=O)(=O)c2ccc(F)cc2)O1)NCCN1CCCCC1,1.01 ± 0.12
10,COc1ccccc1C#Cc1ccc([C@@H]2[C@@H](C#N)N(C(=O)C3CCC3)[C@H]2CO)cc1,1.03 ± 0.022
11,O=C(Cc1ccncc1)N1CC[C@@H]2[C@H](CO)Nc3ccc(-c4ccccc4F)cc3[C@@H]21,1.05 ± 0.044
12,C[C@H](CO)N1C[C@H](C)[C@H](CN(C)C(=O)c2ccncc2)OCCCC[C@H](C)Oc2ccc(NC(=O)CCC(F)(F)F)cc2C1=O,1.09 ± 0.12
13,C[C@@H]1CCn2nncc2COC[C@H]2CCCN2C1=O,1.04 ± 0.058
14,COc1ccccc1NC(=O)N1[C@H](C#N)[C@H](c2ccccc2)[C@H]1CO,1.101 ± 0.0032
15,C/C=C/c1ccccc1[C@H]1[C@@H](C#N)N(C(=O)Cc2ccccn2)[C@@H]1CO,0.949 ± 0.23
16,COCC(=O)N1C[C@@H](C)[C@@H](OC)CN(C)C(=O)c2ccc(NC(=O)Nc3cccc(F)c3)cc2OC[C@@H]1C,0.989 ± 0.026
17,CCCC(=O)Nc1ccc2c(c1)OC[C@H](C)N(C(=O)c1cccnc1)C[C@H](C)[C@@H](OC)CN(C)C2=O,1.0936 ± 0.00045
